Whole data set: some 33,000 sequences, median “E-score (-0.5 to 0.5)” near -0.035, cut for the highest 2% near 0.34. The list shows a part of the results.
The sequences below were run against T1, Mot3 (UniProt P54785) (assay: PBM E-score (8-mer binding enrichment) (E-score (-0.5 to 0.5)); higher = stronger / more preferred TF binding; most listed sequences are background and not binding sites). Conditions: protein concentration: 200 nM; construct: GST-full length.
T1 sequence: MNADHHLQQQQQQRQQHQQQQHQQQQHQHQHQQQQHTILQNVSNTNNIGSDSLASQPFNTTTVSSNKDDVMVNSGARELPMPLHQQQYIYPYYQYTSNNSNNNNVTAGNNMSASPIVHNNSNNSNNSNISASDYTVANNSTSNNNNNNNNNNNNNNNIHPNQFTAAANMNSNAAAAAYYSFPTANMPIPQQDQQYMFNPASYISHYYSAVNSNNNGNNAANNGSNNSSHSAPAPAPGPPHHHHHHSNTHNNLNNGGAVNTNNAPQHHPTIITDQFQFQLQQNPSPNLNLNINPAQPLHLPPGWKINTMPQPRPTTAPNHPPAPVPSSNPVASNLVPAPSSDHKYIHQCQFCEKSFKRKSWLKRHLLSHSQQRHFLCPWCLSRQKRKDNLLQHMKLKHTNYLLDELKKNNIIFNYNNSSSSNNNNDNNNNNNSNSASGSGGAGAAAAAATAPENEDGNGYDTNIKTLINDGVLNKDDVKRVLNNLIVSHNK
How it was run: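 Universal all-10-mer Agilent arrays, fresh or stripped once, were converted to double-stranded form by primer extension. GST-tagged yeast transcription factors from PURExpress in vitro transcription/translation, full-length or DNA-binding domain only, were applied at about 100-200 nM and detected with fluorescent anti-GST. After masliner normalisation, the Universal PBM Analysis Suite scored each ungapped eight-base word together with its reverse complement by E-score.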

Sequence	PBM E-score
AACGACGT	0.175
CACGAAGG	0.182
ATGACCAT	0.0148
ACTGTAGC	-0.0778
AAAAAAAA	0.196
CTCTAGCA	-0.0349
CGGCCGTA	-0.199
AATCTTGG	-0.165
AGGAAGGG	-0.333
TCCTCCCA	-0.214
CAGTGAGC	-0.195
CCGCCAGG	0.196
GATTATCC	-0.148
CCACGGGA	-0.187
CACCCACA	-0.0862
AGGTACAC	0.366
TAGACCCA	-0.0269
GCCGGGGA	-0.311
GGAGCCAA	-0.117
AACGCGGA	0.181
GCTACTAA	0.0556
ATAGCATA	0.0444
CGCCCCCA	-0.152
ATTAGGGG	-0.204
TGCGACAA	0.134

Sequence	PBM E-score
GAAGAAGC	-0.174
AGGGGTTG	-0.174
ATGGTACA	-0.043
ACCCGAAC	-0.0659
AACGTCTG	-0.0633
GAAAGCTA	-0.0214
AGACAGTA	-0.0342
AGGGGTAG	-0.149
GATTTTCA	0.0207
AATCCTAA	0.0321
TCCACAAA	-0.0932
ACTCAACT	-0.0404
AATATCAT	0.0978
ACGAGACT	-0.0374
AAGGAGAT	0.0547
CTAGCAAA	0.00932
AAGCCACT	-0.172
ACCCCTCC	-0.244
AAGCAGAA	0.108
CCTAGTGC	0.0918
AATTGGGC	0.0644
CCGCAGGC	0.272
CATTCGAC	-0.0327
ACCCTACA	0.142
TGAATGCA	0.0537

Sequence	PBM E-score
CGTTCCCC	-0.0559
CTACGGCC	-0.197
CGGGGCAC	-0.205
CCGGAATC	-0.222
GGAATCCA	-0.238
ACGATTTA	0.17
ACGTATGA	0.0587
GGTAACGA	-0.0384
GAAGCTAA	-0.163
AGCTCGAT	-0.261
GATCTGGA	-0.185
ACAGTATA	0.111
CTGTAAAA	0.302
GCTACTCC	-0.317
TCTGGCAA	-0.0937
AAAAAATA	0.0537
AGTTCTCA	-0.0155
TATACCAA	0.0932
GTATTGAA	0.122
CGGCGAAG	-0.169
CGCGCGTA	0.17
AACAAATC	-0.00449
TGTCTCAA	-0.078
GTCTACCA	-0.15
AGGTTATG	0.112

Sequence	PBM E-score
GCTATCAA	-0.123
GGCATGAA	-0.0416
AATGCAAA	0.086
GATTAACC	-0.287
CCGCGTCC	-0.105
AATGTAAT	0.377
AGAACGCC	-0.0172
ACAAACTA	0.139
ATTCTTAG	-0.0678
GGCATCTA	0.0154
GGACGTCA	-0.178
CCCCCGTC	-0.167
AATTCTCG	-0.13
ACACCCTG	-0.0541
AGGCACTC	0.481
CGGCTACA	-0.0371
GCTTTTCA	-0.0394
CTCTCCCC	-0.224
CGTCACGA	-0.146
AATGTTGT	0.223
GTCACGTA	0.198
CTCGCGAG	-0.241
AATAGATA	0.123
CCGGCGAA	-0.103
CGGTCCCA	-0.296

Sequence	PBM E-score
ACCCTGTC	-0.0706
AGTAAGTA	0.107
AATCCGGG	-0.32
CACGCCGA	-0.204
GTTCCACA	-0.0582
GGGCACCA	0.171
CGGTCGCA	-0.104
CTCTCTAC	0.0332
CCGACACG	0.033
ATGGGTGA	-0.0127
ATGGTCTC	-0.165
ATCGAGCA	-0.158
ACTGGTTC	-0.0839
CCGCTGCG	-0.203
GGAGCCAC	-0.278
ACTATTAT	-0.0178
CAAATGGG	-0.0327
CGCAGGCA	0.482
ATACGTAA	0.255
CCAACCAG	-0.072
CACCTTAC	-0.00082
AGGCTCTG	0.136
TAGAAGGA	0.151
AACAGAAC	-0.0318
AAATGGTG	0.138

Sequence	PBM E-score
TCAACTGA	-0.123
AGGATAGC	0.00141
ACCGTCTG	-0.0744
ACACATGA	0.288
ATTGATTC	0.0464
ATAGCGTG	0.125
TATCCAGA	-0.0535
CCGGGCCG	-0.401
ATACAGTC	-0.115
AAAAGGGG	-0.00488
GGAAATAA	0.199
ATCTTCGC	-0.0597
ACTGTATC	-0.0209
AACGCACC	0.0784
ATGGAATG	-0.0529
CGAGATAA	0.0428
ATAGGTGC	0.24
TCGTAGAA	0.0868
AGGCATAG	0.274
CATTACAG	0.287
CCCCGGCA	-0.275
AGCACCTA	0.199
CATGACGG	0.0447
CGGGTTAA	0.0785
GGGGTGTA	0.0304

Sequence	PBM E-score
CGCCATCA	-0.0834
AGAGTGAC	-0.313
GTAATTAA	0.239
GGTATCTA	-0.042
CTAACGTA	0.127
TCATATGA	-0.0309
ACGCTCTC	0.0108
AAGAACCT	0.191
CCCGAGCG	-0.228
GATATAAA	-0.0039
ACGGCAAC	0.106
GATTATGC	-0.145
ACCCTTGC	-0.076
ACACCACA	0.0531
CCTAATGA	0.128
ACTATTGG	-0.245
CTATGTCA	0.255
ACAACTTG	0.0638
AGGCTTTC	0.119
CGTTGAGA	-0.183
GCAGGTCA	0.0659
CAGGTCAG	-0.242
ACACAGAA	0.154
AACCGGGT	0.0626
AGAATTAA	0.0616

Sequence	PBM E-score
AATGCCAT	0.0283
AACCGGTT	0.0054
TCCGCCGA	-0.0253
GGAAACGA	0.0799
AAGCAGCC	-0.232
CGGCAGAG	-0.31
ACACATTC	0.183
CACTGAGA	-0.0286
AAATGAGA	0.0841
AAGTCATG	0.0606
CCGCAACC	-0.164
AGAGGGAA	-0.151
AATCGTTG	0.204
AGAGCATG	0.0764
AATGTTCT	0.0772
ATCCCGAA	-0.164
TAAATTGA	0.153
GTAGTCTA	0.0825
CTACTAAG	-0.123
TGCATACA	0.182
CGGTACTA	-0.28
ACCTGAAG	-0.135
GCGGACGA	-0.0883
AGCGCGTA	0.31
AAATAGGT	0.249

Sequence	PBM E-score
AGTAAACT	0.0571
CGCGCCCG	-0.216
ACGCTCAA	0.121
AGCACAAG	0.0406
CTGCCACA	-0.13
AAGCCTGT	0.159
CGACTGTC	-0.211
CGCCGCAC	-0.11
CGCAAATC	-0.158
CGAAAACA	0.124
CAGGCTAA	0.0181
GTTACCTA	0.369
AACCGGTC	-0.137
CTTGAAAA	0.0204
AATTTCCC	-0.164
ATCCCCTA	-0.2
AGACCGGA	-0.194
CGAGAGCA	-0.162
ATTTCCGC	-0.0932
AGATCCGA	-0.215
CTTTTAGC	-0.0495
TCACCAAA	0.085
ACGAGATG	-0.177
ATGCGATG	-0.0819
GCGTAAAA	0.314

Sequence	PBM E-score
GCTCTCTA	-0.159
CGTTGAAA	0.198
CCACTGAA	-0.0462
CATTAGCC	-0.184
AGCCGACC	-0.272
GCGAGCAA	-0.359
CTCTAAAC	-0.0173
CTGGCCAG	-0.208
AACTCTAA	-0.0907
GGATGATA	-0.0516
CTGGACAG	-0.166
CCAATAGC	-0.232
CACACCTC	-0.19
ATTAATTG	0.0309
ACGTTCCC	-0.216
ATTTTAGG	0.193
AAACGATA	0.145
AGAATCTA	0.0701
AACTTGTG	0.104
CGTCCAAA	-0.153
ATGGGAAG	-0.203
ATATGTTA	0.284
TACCCTGA	-0.109
CTGACGAC	-0.00982
CTTGCAAG	-0.102

Sequence	PBM E-score
ATAGCGTA	0.0277
AATGAGGA	-0.0696
ACAGCATC	-0.00926
AAACACAA	0.253
GTGCCCGA	0.245
AAGTACTG	-0.0249
ACACGCCG	0.18
ACATCCCG	0.0391
AGACGCGA	0.0228
CTTGCGTA	0.18
ACTTGTCA	0.157
CACCGACA	-0.112
AGAGTGAG	-0.00422
CGGAGGAC	-0.284
AACGGGTA	0.176
AAAAGTAG	0.0399
AGCAAGAC	0.00468
ACCTCATA	0.0208
AGAGCTCA	-0.266
CTCGTGTA	0.353
GGAGGTAA	0.0565
GCGATCGC	-0.0352
ATGTGTAG	0.303
GGTCATGA	-0.0434
CGAAACTA	-0.136

Sequence	PBM E-score
CGGTCCTC	-0.359
CAGGTGAC	0.168
ATCTAGAG	-0.149
AGGCCCCG	-0.0117
ATCTATGA	-0.0778
CTCATAAA	0.00564
ATACCTGA	0.0776
CCTAGACA	-0.19
CGATTTGC	-0.216
CCTCGCGC	-0.213
AGTGCAAT	0.0975
ATTGGTCG	-0.14
GATTACAA	0.359
GGGACAGA	-0.259
CGTACTCA	-0.0725
CAAGACAC	0.162
CCGGCGCA	-0.15
TCAAGCGA	-0.15
CGCGACGC	-0.148
ACAATGAA	0.186
GGCTTGAC	-0.149
CCCCCCAG	-0.353
AGCCGGTA	0.0147
CGCTGTGA	-0.0668
AACGTTTA	0.0821

Sequence	PBM E-score
GCCACTCC	-0.324
GTACGATA	0.0277
AGAGCTTG	-0.0503
ATGAGAGG	-0.287
ATTCACAG	-0.0781
ACGAAGAA	0.226
AGCCCGTA	0.00785
AAACACCC	-0.00769
CCCGTCGC	-0.217
ACGGAATA	0.0127
ACGCCGGA	-0.203
CTGCTTCA	-0.119
CCCCAAGG	-0.254
CAAAATTA	0.136
GTTGCACA	-0.0295
AAATCCAC	-0.0364
CCAACTGA	-0.0452
CGTCATAA	0.0391
AAACATGT	0.374
CGAGATTC	-0.192
CTGGCTGC	-0.138
CGTCCCTA	-0.165
CATGATAC	0.073
CCAAGTAG	-0.0147
CCTGGTCG	0.0914

Sequence	PBM E-score
ATTTTTTC	0.134
ATATACTG	-0.00128
AGGCAAGC	0.489
CTTTTGCC	0.33
GGACAGCA	-0.224
ATTTCCTG	0.41
GAGACCCC	-0.259
CGAATGAA	-0.114
GATCAGTA	-0.00813
AATTTTGA	0.0309
CCAAGGAA	0.254
ACTGCTAG	-0.105
AGACTTTG	0.0306
AGGGGGGG	-0.429
ACTATGGA	-0.191
AAAGTGTC	0.0356
CCCGTCGA	-0.0778
GATAAAAA	0.0449
CTAAGAGA	0.0556
